# According to PubChem BioAssay (NCATS):
# The shares of active, inactive and inconclusive entries below differ from those in the screen. For part of these data: Potencies of inconclusive entries are doubtful fits and often do not repeat. The source made the active and inactive calls. Unless noted, calls come from the whole dose curve; as a rule, active = well fitted curve in the direction sought with a large enough effect; inconclusive = small, poorly fitted or top-dose-only effect, or another doubt; inactive = no such curve, though single readings can be large; an effect the other way counts as inactive or inconclusive.
# Assays:
# [1] = target: Tyrosine-protein phosphatase non-receptor type substrate 1 (Homo sapiens) + Leukocyte surface antigen CD47 (Homo sapiens) (UniProt P78324+Q08722); test: CD47-SIRPalpha protein protein interaction - Alpha assay qHTS validation (AID 1347059);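 note: bead proximity luminescence from CD47 binding SIRPalpha after compound preincubation with SIRPalpha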; note: potency is the fitted concentration of half-maximal effect
# Method in brief: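 AlphaScreen signal between CD47-His (12.5 nM) and biotin-SIRPalpha (25 nM) soluble extracellular domains, bead-captured via Ni-NTA and streptavidin. Compounds, in 7-point titrations, met SIRPalpha 30 min before CD47; PBS pH 7.4 with 0.05% IGEPAL.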
# [2] = qHTS of pediatric cancer cell lines to identify multiple opportunities for drug repurposing: Primary screen for MG 63 (6-TG R) cells (AID 1347105); details: MG 63 (6-TG R) viability, CellTiter-Glo, 48 h; at 46 µM (top of the series); note: % is set by controls: 0 for no effect and ±100 for the full control effect; nearly all actives have a fitted effect of over 50% in size
# Method in brief: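 Following a 5-hour attachment period, cells at 500-1,000/well received compounds and were cultured for 48 hours. CellTiter-Glo was added and luminescence read to estimate viable, metabolically active cells.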
# [3] = Quantitative High-Throughput drug screen in 47 multiple myeloma cell lines against the NCATS MIPE library collection: EJM_DSMZ cell viability assay (AID 1918926; note: nearly all actives have a fitted effect of over 30% in size)
# Method in brief: (§1)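 We plated 500 myeloma cells per well, pinned in MIPE 4.0 compounds, and incubated for 48 hours at 37C. ATP was then quantified with CellTiter-Glo, with DMSO and media-only wells defining 100% and 0%.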
# [4] = Quantitative High-Throughput drug screen in 47 multiple myeloma cell lines against the NCATS MIPE library collection: OPM2_DSMZ cell viability assay (AID 1919872); note: nearly all actives have a fitted effect of over 30% in size; note: potency is the fitted concentration of half-maximal effect
# Method in brief: as §1
# [5] = qHTS of pediatric cancer cell lines to identify multiple opportunities for drug repurposing: Primary screen for LAN-5 cells (AID 1347100); note: potency is the fitted concentration of half-maximal effect;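 for activity change, negative = cytotoxic: plate controls were DMSO neutral control for no effect and bortezomib positive control for full effect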
# Method in brief: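 Cells (500-1,000/well) rested 5 h, then received compounds for 48 h; metabolically active cells were measured by CellTiter-Glo luminescence. Final concentrations spanned up to 46 µM (MIPE, 11-point) or 0.59 nM-46 µM (NPC, 8-point) in primary screens, 11-point in follow-ups.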
# [6] = Quantitative High-Throughput drug screen in 47 multiple myeloma cell lines against the NCATS MIPE library collection: H1112_PLB cell viability assay (AID 1918967; note: nearly all actives have a fitted effect of over 30% in size; note: potency is the fitted concentration of half-maximal effect)
# Method in brief: as §1
# [7] = Quantitative High-Throughput drug screen in 47 multiple myeloma cell lines against the NCATS MIPE library collection: MM1R_ATCC cell viability assay (AID 1918981); note: nearly all actives have a fitted effect of over 35% in size; note: potency is the fitted concentration of half-maximal effect
# Method in brief: (§2)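 ATP-based CellTiter-Glo luminescence after 48 h drug exposure (37 °C, 5% CO2) of 500 myeloma cells per well. DMSO-only wells set 100% viability, media-only wells 0%; MIPE 4.0 library added by pin tool.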
# [8] = qHTS for Inhibitors of ATXN expression: Validation of Cytotoxic Assay (AID 588349); note: potency is the fitted concentration of half-maximal effect
# Method in brief: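 Titrated compounds are added to cultured HEK293 cells, which are then held at 37 degrees C for 72 hr; loss of intracellular ATP, measured with CellTiter Glo, indicates toxicity.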
# [9] = target: Peptidyl-prolyl cis-trans isomerase NIMA-interacting 1 (Homo sapiens) (UniProt Q13526); test: qHTS Validation Assay to Find Inhibitors of Pin1 (AID 504536; active = well fitted inhibition curve with a large enough effect in the polarisation, with a control signal flat, not every such curve was filed as active; inconclusive = small, poorly fitted or top-dose-only effect, or effect the other way; the % refers to the polarisation; note: potency is the fitted concentration of half-maximal effect;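 for activity, negative = inhibition: 0% = full Pin1 enzyme wells and -100% = no-enzyme wells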)
# Method in brief: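 Fluorescence polarization competition: compounds (titration) displace HiFluor-488-labeled Pin1-1b peptide from Pin1 (0.3 uM final) in pH 7.5 HEPES buffer with DTT, 10 min at room temperature; %Activity normalized to no-enzyme wells, curves fitted.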
# [10] = qHTS Assay for Identification of Small Molecule Agonists for Thrombopoietin (TPO) Signaling Pathway (AID 917); note: potency is the fitted concentration of half-maximal effect
# Method in brief: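 Luciferase reporter (Glycoprotein IIb promoter) in IL-3-deprived Ba/F3 cells carrying human TPO receptor; compounds co-added with 26 pM TPO, incubated 24 h, 37 C. Steadylite luminescence measured after 10 min.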
# [11] = target: Muscarinic acetylcholine receptor M1 (Rattus norvegicus) (UniProt P08482); test: qHTS Assay for Antagonists of Acetylcholine Muscarinic M1 Receptor: Measurement of IP-One Response (AID 944); note: nearly all actives have a fitted effect of over 75% in size; note: potency is the fitted concentration of half-maximal effect
# [12] = target: Endonuclease 4 (Escherichia coli (strain K12)) (UniProt P0A6C1); test: Counterscreen for APE1 Inhibitors: qHTS Validation Assay for Inhibitors of Endonuclease IV (AID 1708); note: potency is the fitted concentration of half-maximal effect
# Method in brief: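 Incision of a double-stranded 50 nM TAMRA/BHQ-2 abasic substrate was followed kinetically (525/598 nm, reads every 60 s) after 15 min enzyme–compound preincubation with 2 nM EndoIV in pH 7.5 Tris buffer with MgCl2, DTT and Tween-20; concentration-response format.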
# [13] = test system: 7G8; test: qHTS profiling for inhibitors of Plasmodium falciparum proliferation (AID 504749); note: nearly all actives have a fitted effect of over 60% in size; note: potency is the fitted concentration of half-maximal effect;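 for activity, negative = inhibition: 0% = DMSO vehicle and full inhibition = artemisinin control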; details: P. falciparum in erythrocytes, SYBR Green DNA, 72 h; series mostly up to 28.7 µM
# Method in brief: (§3)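 SYBR Green fluorescence of parasite DNA, read after lysis and overnight dark incubation, measured growth over 72 h in erythrocyte culture at 0.3% parasitemia and 2.5% hematocrit. Data normalised to DMSO and 0.29 uM artemisinin, with plate-drift correction.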
# [14] = test system: W2; test: as above; details: P. falciparum in erythrocytes, SYBR Green DNA, 72 h; series mostly up to 28.7 µM
# Method in brief: as §3
# [15] = qHTS to identify inhibitors of the type 1 interferon - major histocompatibility complex class I in skeletal muscle: primary screen against the NCATS LOPAC collection (AID 1347405);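 note: human myoblasts with HiBiT tag on endogenous HLA-B stimulated by IFN-beta; lytic HiBiT luminescence reporting HLA-B protein level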; note: potency is the fitted concentration of half-maximal effect
# Method in brief: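 First, engineered myoblasts carrying HLA-B-HiBiT were seeded in medium lacking dexamethasone with 4 ng/ml IFN-beta. After 1 hr, compounds were pinned in (top 46 uM final, 7 points). After 24 hrs at 37 C, luminescence was measured following 10 min lysis.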
# [16] = target: Ferritin light chain (Equus caballus) (UniProt P02791); test: qHTS Validation Assay for Identification of Novel General Anesthetics (AID 2323); note: potency is the fitted concentration of half-maximal effect
# Method in brief: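 Competitive displacement of the profluorescent anesthetic 1-AMA (50% saturated, PBS) from 10 uM apoferritin, 10 min, room temperature. Activity is normalized 380/535 nm fluorescence; concentration-response fitted with a four-parameter Hill equation.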
# [17] = test system: CP247; test: qHTS profiling for inhibitors of Plasmodium falciparum proliferation (AID 504749); note: nearly all actives have a fitted effect of over 60% in size; note: potency is the fitted concentration of half-maximal effect;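 for activity, negative = inhibition: 0% = DMSO vehicle and full inhibition = artemisinin control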; details: P. falciparum in erythrocytes, SYBR Green DNA, 72 h; series mostly up to 28.7 µM
# Method in brief: as §3
# [18] = Quantitative High-Throughput drug screen in 47 multiple myeloma cell lines against the NCATS MIPE library collection: OPM1_PLB cell viability assay (AID 1918989); note: potency is the fitted concentration of half-maximal effect; nearly all actives have a fitted effect of over 40% in size
# Method in brief: as §2
# [19] = test system: Zika virus NS2B-NS3 protease (unlinked complex); test: Confirmatory screen GU AMC qHTS for Zika virus inhibitors (AID 1347153); note: nearly all actives have a fitted effect of over 70% in size;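 for Potency: enzyme at 25 nM with substrate at 10 µM below its Km of 18.3 µM; potency is the fitted concentration of half-maximal effect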;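 for activity, negative = inhibition: percent inhibition with 0% = no inhibitor control and 100% = no enzyme control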
# Method in brief: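 Compounds were preincubated 15 min at room temperature with 25 nM noncovalent NS2B-NS3 protease at pH 8.0; AMC substrate added at 10 microM and 15-min fluorescence gain (340/450 nm) converted to percent inhibition, fitted 4-parameter.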
# [20] = target: Rap guanine nucleotide exchange factor 3 (Homo sapiens) (UniProt O95398); test: Confirmatory qHTS for antagonist of cAMP-regulated guanine nucleotide exchange factor 3 (EPAC1) (AID 1645880); details: EPAC1 Rap1B-BODIPY-GDP exchange, fluorescence; activity, negative = inhibition: at 115 µM (top of the series); note: potency is the fitted concentration of half-maximal effect; nearly all actives have a fitted effect of over 55% in size
# Method in brief: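 Released BODIPY-GDP fluoresces less than Rap1-bound BODIPY-GDP; the signal is followed at 480/540 nm at 5-min intervals over 30 min, after 5 min at room temperature. Reactions contain 100 nM EPAC1, 250 nM RAP1B-BODIPY-GDP and 50 uM GDP; results are normalized to ATA and DMSO.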
# Tags give direction and shape of the fitted curve or compound fluorescence and quenching.
# Sequence of UniProt O95398 (O95398 whole entry, looked up): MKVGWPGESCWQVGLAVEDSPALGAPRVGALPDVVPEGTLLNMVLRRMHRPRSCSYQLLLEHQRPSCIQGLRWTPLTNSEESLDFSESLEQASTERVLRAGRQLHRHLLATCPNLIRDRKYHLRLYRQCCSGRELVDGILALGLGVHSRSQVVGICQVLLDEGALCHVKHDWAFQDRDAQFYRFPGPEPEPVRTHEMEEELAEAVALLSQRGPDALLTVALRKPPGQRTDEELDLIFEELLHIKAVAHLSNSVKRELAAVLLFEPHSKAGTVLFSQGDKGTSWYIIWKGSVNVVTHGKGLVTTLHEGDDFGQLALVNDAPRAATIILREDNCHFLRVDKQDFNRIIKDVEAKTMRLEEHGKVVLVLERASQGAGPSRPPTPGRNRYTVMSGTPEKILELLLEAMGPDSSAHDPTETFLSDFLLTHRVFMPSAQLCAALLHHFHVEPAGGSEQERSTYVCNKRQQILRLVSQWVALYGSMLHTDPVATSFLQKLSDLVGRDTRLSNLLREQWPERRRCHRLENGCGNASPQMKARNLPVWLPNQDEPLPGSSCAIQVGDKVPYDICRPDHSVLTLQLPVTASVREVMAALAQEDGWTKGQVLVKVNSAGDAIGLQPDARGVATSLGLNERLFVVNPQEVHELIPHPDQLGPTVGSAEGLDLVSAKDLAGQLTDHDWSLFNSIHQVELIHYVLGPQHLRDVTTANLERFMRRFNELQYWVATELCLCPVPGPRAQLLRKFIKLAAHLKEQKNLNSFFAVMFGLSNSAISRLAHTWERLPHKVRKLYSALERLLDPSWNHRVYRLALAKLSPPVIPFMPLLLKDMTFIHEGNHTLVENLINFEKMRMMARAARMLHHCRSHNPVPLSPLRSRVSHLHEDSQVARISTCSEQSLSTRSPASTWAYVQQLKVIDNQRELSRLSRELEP
# Sequence of UniProt P08482 (P08482 whole entry, looked up): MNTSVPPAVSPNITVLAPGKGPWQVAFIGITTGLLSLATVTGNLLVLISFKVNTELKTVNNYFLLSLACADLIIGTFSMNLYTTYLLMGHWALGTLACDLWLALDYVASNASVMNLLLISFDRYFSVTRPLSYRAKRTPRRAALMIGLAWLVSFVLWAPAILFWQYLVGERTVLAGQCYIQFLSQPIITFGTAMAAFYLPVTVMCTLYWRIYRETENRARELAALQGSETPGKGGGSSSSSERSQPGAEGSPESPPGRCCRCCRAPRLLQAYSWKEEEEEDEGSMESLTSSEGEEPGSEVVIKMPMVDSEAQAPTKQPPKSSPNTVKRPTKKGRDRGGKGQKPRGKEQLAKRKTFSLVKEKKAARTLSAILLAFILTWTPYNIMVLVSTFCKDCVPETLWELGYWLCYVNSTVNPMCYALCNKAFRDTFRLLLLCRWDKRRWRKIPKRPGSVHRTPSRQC
# Sequence of UniProt P78324 (P78324 whole entry, looked up, the tested form may be a part): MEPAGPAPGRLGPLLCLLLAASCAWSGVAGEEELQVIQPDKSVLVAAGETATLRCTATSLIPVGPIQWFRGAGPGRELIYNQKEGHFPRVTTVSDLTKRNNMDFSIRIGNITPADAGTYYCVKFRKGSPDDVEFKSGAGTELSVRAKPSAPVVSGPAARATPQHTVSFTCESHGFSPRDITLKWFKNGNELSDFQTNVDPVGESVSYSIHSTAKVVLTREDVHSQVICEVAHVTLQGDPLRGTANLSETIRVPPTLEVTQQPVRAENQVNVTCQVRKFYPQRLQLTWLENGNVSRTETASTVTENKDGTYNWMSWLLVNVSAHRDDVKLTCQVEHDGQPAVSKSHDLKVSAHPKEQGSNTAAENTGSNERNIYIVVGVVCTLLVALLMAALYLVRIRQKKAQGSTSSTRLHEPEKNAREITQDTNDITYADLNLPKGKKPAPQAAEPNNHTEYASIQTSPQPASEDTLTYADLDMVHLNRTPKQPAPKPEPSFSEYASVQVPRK
# Sequence of UniProt P78324 (Q08722 whole entry, looked up, the tested form may be a part): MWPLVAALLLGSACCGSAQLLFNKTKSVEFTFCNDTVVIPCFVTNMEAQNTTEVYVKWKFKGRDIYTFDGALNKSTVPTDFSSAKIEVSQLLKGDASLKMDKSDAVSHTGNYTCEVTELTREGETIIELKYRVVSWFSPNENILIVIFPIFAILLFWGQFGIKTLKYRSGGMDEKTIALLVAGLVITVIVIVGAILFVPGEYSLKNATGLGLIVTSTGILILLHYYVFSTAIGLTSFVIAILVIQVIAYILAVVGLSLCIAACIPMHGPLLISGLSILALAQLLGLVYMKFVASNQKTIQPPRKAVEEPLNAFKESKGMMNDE
# Sequence of UniProt Q13526 (Q13526 whole entry, looked up): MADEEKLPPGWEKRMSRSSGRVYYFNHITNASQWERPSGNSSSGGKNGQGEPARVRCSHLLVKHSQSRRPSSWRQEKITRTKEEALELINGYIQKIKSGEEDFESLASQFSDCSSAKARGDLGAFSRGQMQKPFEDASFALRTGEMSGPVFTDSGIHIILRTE
# Sequence of UniProt P02791 (P02791 whole entry, looked up): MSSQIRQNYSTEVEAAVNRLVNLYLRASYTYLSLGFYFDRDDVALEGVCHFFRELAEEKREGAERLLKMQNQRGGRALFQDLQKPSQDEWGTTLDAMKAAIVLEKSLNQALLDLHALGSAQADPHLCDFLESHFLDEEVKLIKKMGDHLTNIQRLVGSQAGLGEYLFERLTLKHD
structure (smiles),measurement,setting,value
Nc1nc2c(nc(Br)n2C2OC3COP(=O)(O)O[C@@H]3C2O)c(=O)[nH]1 (stereo partly specified),Potency,[1],inactive
CC(=O)O[C@H]1C[C@@H]2CC[C@H]3[C@H]4C[C@H]([N+]5(C)CCCCC5)[C@@H](OC(C)=O)[C@@]4(C)CC[C@@H]3[C@@]2(C)C[C@H]1N1CCCCC1,"activity change, negative = cytotoxic",[2],inactive: -2.12%
same,Potency,[3],inactive
same,Potency,[4],"inconclusive: 0.0148 µM [rising, full curve, poor fit]"
CC(=O)OCC(=O)[C@@]1(O)CC[C@H]2[C@@H]3CCC4=CC(=O)CC[C@]4(C)[C@@H]3C(=O)C[C@@]21C,Potency,[5],inactive
same,Potency,[6],inactive
same,Potency,[7],inactive
Nc1ncnc2c1nc(Sc1ccc(Cl)cc1)n2[C@H]1OC2COP(=O)(O)O[C@@H]2C1O (stereo partly specified),Potency,[8],inactive
same,Potency,[1],inactive
Nc1nc2c(cnn2CCc2ccccc2)c2nc(-c3ccco3)nn12,Potency,[9],inactive
Cc1cccc(C(=O)NCN2CCN(c3ccccc3C#N)CC2)c1,Potency,[10],"inconclusive: 3.16 µM [activator, single point]"
same,Potency,[11],"inconclusive: 0.0079 µM [inhibitor, full curve, poor fit]"
same,Potency,[12],inactive
C[Se]CCC(N)C(=O)O (stereo unspecified),Potency,[7],"inconclusive: 3 nM [cytotoxic, full curve, poor fit]"
same,Potency,[13],inactive
same,Potency,[14],"inconclusive: 4.3 nM [inhibitor, full curve, poor fit]"
CCCCC[C@H](CC(=O)NO)C(=O)N[C@H](C(=O)N1CCC[C@H]1CO)C(C)C,Potency,[8],"inconclusive: 0.398 µM [cytotoxic, full curve, poor fit]"
same,Potency,[15],inactive
NCCS,Potency,[11],inactive
same,Potency,[12],inactive
same,Potency,[16],inactive
O=C(O)c1ccc[n+]([O-])c1,Potency,[13],inactive
Nc1ccc(C(=O)O)cc1,"activity change, negative = cytotoxic",[2],inconclusive: -31.6% [cytotoxic]
same,Potency,[13],inactive
same,Potency,[14],inactive
NC(=S)c1ccc[n+]([C@@H]2O[C@@H](COP(=O)([O-])OP(=O)(O)OC[C@H]3O[C@@H](n4cnc5c(N)ncnc54)[C@H](OP(=O)(O)O)[C@@H]3O)C(O)C2O)c1 (stereo partly specified),Potency,[9],active: 19 µM
COc1ccc(C(=O)NCc2ccc(OCCN(C)C)cc2)cc1OC,Potency,[17],inactive
same,Potency,[14],inactive
O=C(Oc1ccccc1C(=O)O)c1ccccc1O,"activity change, negative = cytotoxic",[2],inactive: -3.34%
same,Potency,[17],inactive
CN1[C@H]2CC(OC(=O)[C@@H](CO)c3ccccc3)C[C@H]1[C@H]1O[C@H]12 (stereo partly specified),Potency,[3],inactive
same,Potency,[4],inactive
O=C(O)c1cccnc1C(=O)O,Potency,[1],active: 16.5 µM
C[C@@H]1[C@H](O)[C@@H](C)C=CC=CC=CC=CC=CC=CC=C[C@H](O[C@@H]2O[C@H](C)[C@H](O)[C@H](N)[C@@H]2O)C[C@@H]2O[C@](O)(C[C@@H](O)C[C@@H](O)[C@H](O)CC[C@@H](O)C[C@@H](O)CC(=O)O[C@H]1C)C[C@H](O)[C@@H]2C(=O)O,Potency,[5],"inconclusive: 37.2 µM [cytotoxic, single point]"
same,Potency,[6],active: 3.32 µM
same,Potency,[18],"inconclusive: 11.8 µM [cytotoxic, single point]"
same,Potency,[4],"inconclusive: 33.2 µM [cytotoxic, single point]"
CCOC(N)=O,Potency,[5],inactive
CN(C)CCOC(C)(c1ccccc1)c1ccccn1 (stereo unspecified),Potency,[15],inactive
CC(O)C(O)[C@H]1CNc2nc(N)[nH]c(=O)c2N1 (stereo partly specified),Potency,[13],"inconclusive: 17.8 µM [inhibitor, single point]"
CC(C)=CCc1c2c(c3occ(-c4ccc(O)c(O)c4)c(=O)c3c1O)C=CC(C)(C)O2,Potency,[19],"inconclusive: 19.2 µM [inhibitor, partial curve]"
same,Potency,[20],"inconclusive: 88.5 µM [inhibitor, partial curve, poor fit]"
C=C[C@@H]1CN2CC[C@@H]1C[C@H]2[C@H](O)c1ccnc2ccc(OC)cc12,Potency,[16],inactive
same,Potency,[8],"inconclusive: 39.8 µM [cytotoxic, single point]"
Cn1cc(C(F)(F)F)nc1-c1ccc(OCC(O)CNCCOc2ccc(O)c(C(N)=O)c2)cc1 (stereo unspecified),Potency,[8],inactive
CCCCCCN(CCCCCC)C(=O)Cc1c(-c2ccc(F)cc2)[nH]c2ccccc12,Potency,[10],"inconclusive: 7.94 µM [inhibitor, partial curve]"
same,Potency,[11],inactive
NCC(O)C1CCCCCCC1 (stereo unspecified),Potency,[9],inactive
O=C(O)C1=CCCNC1,Potency,[16],inactive
CC(C)=CCCC1(C)C=Cc2c(O)c3c(c(CC=C(C)C)c2O1)OC12C(=CCCC1C(C)(C)O[C@@]2(C/C=C(\C)C(=O)O)C(=O)O)C3=O (stereo partly specified),Potency,[20],active: 55.9 µM
COc1ccccc1N1CCN(CCCNc2c(C)c(=O)n(C)c(=O)n2C)CC1,Potency,[10],inactive
same,Potency,[11],"inconclusive: 31.6 µM [inhibitor, partial curve, poor fit]"
same,Potency,[19],inactive
C[S+](=O)([O-])c1ccc(OCC2CN(Cc3ccccc3)C(=O)c3c(ccnc3-c3ccc(OCC(=O)O)cc3)O2)cc1 (stereo unspecified),Potency,[19],inactive
O=C(O)c1ccccc1Nc1cccc(OCc2ccc3ccccc3n2)c1,Potency,[10],"inconclusive: 10 µM [activator, single point]"
NCCNS(=O)(=O)c1cccc2c(Cl)cccc12,Potency,[10],"inconclusive: 0.631 µM [inhibitor, full curve, poor fit]"
same,Potency,[12],"inconclusive: 10 µM [inhibitor, partial curve, poor fit]"
same,Potency,[16],"inconclusive: 22.4 µM [inhibitor, partial curve]"
same,Potency,[15],"inconclusive: 28.2 µM [inhibitor, single point]"
Cc1cc(C)cc(C(=O)N(C)[C@H](Cc2ccc(-c3ccccc3)cc2)C(=O)N[C@@H](Cc2c[nH]c3ccccc23)C(=O)O)c1,Potency,[20],"inconclusive: 49.8 µM [inhibitor, single point]"
CCN(CC)c1ccc(/C=N/NC(=O)c2ccc(O)cc2)cc1,Potency,[19],"inconclusive: 19.2 µM [inhibitor, partial curve, poor fit]"
O=c1[nH]c(=S)[nH]c(-c2ccccc2)c1Cc1c(O)ccc2ccccc12,Potency,[15],"inconclusive: 14.1 µM [inhibitor, partial curve, poor fit]"
CCOc1nc2cccc(C(=O)OC(C)OC(=O)OC3CCCCC3)c2n1Cc1ccc(-c2ccccc2-c2nn[nH]n2)cc1 (stereo unspecified),Potency,[20],"inconclusive: 88.5 µM [inhibitor, single point]"
O=C(O)CCc1ccc(-c2ccc(Cl)cc2)n1-c1cccc(C(F)(F)F)c1,Potency,[20],"inconclusive: 84.9 µM [inhibitor, partial curve]"
CC(=O)Oc1cc2c(c(C)c1OC(C)=O)CC=C1[C@@]2(C)CC[C@@]2(C)[C@H]3C[C@](C)(C(=O)O)CC[C@]3(C)CC[C@]12C,Potency,[19],active: 21.5 µM
O=C(Nc1cc(C(=O)Nc2ccc(S(=O)(=O)O)cc2S(=O)(=O)O)cc(C(=O)Nc2ccc(S(=O)(=O)O)cc2S(=O)(=O)O)c1)Nc1cc(C(=O)Nc2ccc(S(=O)(=O)O)cc2S(=O)(=O)O)cc(C(=O)Nc2ccc(S(=O)(=O)O)cc2S(=O)(=O)O)c1,Potency,[12],active: 6.31 µM
